Test results published in paper PMC2441632.
These are yes or no findings as the source states them, for the method shown. In cells and extracts the contact can be indirect. Some results given as binding are weak or reduced against the parent protein; the word gives no strength.

By UniProt entry, the sequences of proteins in these tests, tags left out.
UniProt P08659: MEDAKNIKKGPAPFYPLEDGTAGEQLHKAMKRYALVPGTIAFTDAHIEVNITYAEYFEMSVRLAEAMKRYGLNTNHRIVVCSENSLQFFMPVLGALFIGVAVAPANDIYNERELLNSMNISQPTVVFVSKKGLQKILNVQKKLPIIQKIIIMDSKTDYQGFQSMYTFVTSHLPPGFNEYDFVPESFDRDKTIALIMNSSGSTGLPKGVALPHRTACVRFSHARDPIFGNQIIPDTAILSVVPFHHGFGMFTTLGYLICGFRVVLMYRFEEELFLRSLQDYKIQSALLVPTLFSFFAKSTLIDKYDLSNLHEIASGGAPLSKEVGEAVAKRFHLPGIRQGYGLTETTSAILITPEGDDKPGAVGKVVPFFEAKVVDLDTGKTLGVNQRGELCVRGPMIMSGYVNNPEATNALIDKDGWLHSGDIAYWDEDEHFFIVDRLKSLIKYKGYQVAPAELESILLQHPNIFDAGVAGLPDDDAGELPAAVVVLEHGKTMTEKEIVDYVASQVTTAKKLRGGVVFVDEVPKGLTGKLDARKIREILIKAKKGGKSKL

Legend:
[1] = biological target: T1, full length murine TAF3 (mTAF3), Sf9 extract (mouse) (UniProt Q5HZG4); assay: co-IP; in vitro translated 35S-labelled proteins mixed with Sf9 extract overexpressing mTAF3; immunoprecipitation with anti-TAF3 39TA2F5; washed 3 times with PBS and once with PBS with 200 mM KCl; fluorography
T1 sequence: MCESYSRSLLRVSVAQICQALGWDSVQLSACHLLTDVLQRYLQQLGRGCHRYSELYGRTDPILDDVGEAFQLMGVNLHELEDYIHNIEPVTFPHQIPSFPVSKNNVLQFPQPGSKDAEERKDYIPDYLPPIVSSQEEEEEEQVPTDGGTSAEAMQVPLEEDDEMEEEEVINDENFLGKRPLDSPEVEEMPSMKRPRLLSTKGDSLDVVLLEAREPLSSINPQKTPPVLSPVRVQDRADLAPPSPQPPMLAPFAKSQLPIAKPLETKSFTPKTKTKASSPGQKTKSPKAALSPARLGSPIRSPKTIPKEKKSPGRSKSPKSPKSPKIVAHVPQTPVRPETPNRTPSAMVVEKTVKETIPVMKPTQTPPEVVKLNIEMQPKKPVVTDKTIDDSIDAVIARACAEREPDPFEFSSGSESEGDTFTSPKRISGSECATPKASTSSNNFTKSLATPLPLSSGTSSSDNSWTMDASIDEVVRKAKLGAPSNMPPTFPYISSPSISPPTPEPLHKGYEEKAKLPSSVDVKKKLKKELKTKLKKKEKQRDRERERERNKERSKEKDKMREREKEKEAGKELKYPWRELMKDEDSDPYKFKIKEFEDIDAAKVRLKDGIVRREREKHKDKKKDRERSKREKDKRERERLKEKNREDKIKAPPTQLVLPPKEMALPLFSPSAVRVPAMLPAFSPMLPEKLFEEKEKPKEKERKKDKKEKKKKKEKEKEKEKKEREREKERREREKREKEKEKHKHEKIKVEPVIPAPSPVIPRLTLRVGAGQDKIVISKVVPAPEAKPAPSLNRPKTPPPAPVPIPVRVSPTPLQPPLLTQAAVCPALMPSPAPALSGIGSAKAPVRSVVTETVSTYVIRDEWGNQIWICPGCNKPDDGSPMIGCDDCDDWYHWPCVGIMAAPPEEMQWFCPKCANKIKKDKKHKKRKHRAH

[2] = biological target: T2, mTAF3 overexpressed in 293T cells (mouse) (UniProt Q5HZG4); assay: co-IP; 293T cells co-transfected with p53 and mTAF3 plasmids, lysed 48 h after transfection; immunoprecipitation with anti-TAF3 39TA1C7, Western blot with anti-p53
T2 sequence: T1 sequence

firefly luciferase, in vitro translated (from UniProt P08659 1-550) (enzyme)
binding [1]: no binding

full length human p53, in vitro translated (from UniProt P04637 1-393)
binding [1]: binds

human p53 overexpressed in 293T cells (from UniProt P04637 1-393)
binding [2]: binds
